From PMC11911400, “Mechanism of ASF1 engagement by CDAN1” (Nature Communications, 2025) come the findings set out here.

Assay [1] concerns the target T1, Strep-CDAN1 BDA1* BDA2* (both B-domains mutated) (human) (UniProt Q8IWY9).
T1 sequence: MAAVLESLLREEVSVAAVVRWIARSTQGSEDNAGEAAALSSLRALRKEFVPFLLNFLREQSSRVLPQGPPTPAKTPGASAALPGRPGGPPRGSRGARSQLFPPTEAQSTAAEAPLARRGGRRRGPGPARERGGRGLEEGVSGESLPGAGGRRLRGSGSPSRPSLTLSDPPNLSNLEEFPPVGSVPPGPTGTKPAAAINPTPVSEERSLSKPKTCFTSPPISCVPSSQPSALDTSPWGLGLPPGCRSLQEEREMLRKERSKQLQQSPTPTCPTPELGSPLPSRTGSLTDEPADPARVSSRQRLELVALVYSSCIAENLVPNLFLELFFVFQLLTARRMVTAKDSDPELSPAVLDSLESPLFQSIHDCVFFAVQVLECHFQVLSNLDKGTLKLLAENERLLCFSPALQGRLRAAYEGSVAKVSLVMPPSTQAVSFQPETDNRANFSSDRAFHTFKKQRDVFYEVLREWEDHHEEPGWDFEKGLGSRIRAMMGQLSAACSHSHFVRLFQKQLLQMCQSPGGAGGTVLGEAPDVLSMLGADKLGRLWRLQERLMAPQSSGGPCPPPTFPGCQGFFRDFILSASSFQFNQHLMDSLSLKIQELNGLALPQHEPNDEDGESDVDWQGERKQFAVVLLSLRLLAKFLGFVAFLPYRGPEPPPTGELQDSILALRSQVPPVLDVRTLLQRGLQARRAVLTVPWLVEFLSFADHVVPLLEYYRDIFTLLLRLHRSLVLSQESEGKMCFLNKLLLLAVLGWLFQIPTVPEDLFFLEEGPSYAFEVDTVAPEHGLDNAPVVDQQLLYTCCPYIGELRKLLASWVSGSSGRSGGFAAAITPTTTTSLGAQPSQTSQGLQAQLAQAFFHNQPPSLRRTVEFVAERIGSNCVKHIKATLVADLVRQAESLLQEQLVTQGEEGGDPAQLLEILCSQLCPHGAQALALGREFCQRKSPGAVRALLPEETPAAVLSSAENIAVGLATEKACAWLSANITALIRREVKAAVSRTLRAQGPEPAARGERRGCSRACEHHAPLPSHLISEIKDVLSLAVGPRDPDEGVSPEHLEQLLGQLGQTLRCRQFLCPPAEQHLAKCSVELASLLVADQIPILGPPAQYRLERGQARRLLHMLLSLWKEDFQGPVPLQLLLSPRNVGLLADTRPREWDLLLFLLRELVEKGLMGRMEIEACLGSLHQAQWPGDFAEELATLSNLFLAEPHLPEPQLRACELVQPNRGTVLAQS
Description: pull-down; Strep-Tactin pulldown of transiently transfected ST-CDAN1 variants from Flp-In 293 T-REx lysates; endogenous ASF1A, ASF1B and CDIN1 detected by immunoblotting; IP buffer with 1% Triton X-100, 1 hr at 4 °C.

Assay [2] addresses T2, Strep-CDAN1 HMHA1* HMHA2* (both H3 mimic helices mutated) (human) (UniProt Q8IWY9).
T2 sequence: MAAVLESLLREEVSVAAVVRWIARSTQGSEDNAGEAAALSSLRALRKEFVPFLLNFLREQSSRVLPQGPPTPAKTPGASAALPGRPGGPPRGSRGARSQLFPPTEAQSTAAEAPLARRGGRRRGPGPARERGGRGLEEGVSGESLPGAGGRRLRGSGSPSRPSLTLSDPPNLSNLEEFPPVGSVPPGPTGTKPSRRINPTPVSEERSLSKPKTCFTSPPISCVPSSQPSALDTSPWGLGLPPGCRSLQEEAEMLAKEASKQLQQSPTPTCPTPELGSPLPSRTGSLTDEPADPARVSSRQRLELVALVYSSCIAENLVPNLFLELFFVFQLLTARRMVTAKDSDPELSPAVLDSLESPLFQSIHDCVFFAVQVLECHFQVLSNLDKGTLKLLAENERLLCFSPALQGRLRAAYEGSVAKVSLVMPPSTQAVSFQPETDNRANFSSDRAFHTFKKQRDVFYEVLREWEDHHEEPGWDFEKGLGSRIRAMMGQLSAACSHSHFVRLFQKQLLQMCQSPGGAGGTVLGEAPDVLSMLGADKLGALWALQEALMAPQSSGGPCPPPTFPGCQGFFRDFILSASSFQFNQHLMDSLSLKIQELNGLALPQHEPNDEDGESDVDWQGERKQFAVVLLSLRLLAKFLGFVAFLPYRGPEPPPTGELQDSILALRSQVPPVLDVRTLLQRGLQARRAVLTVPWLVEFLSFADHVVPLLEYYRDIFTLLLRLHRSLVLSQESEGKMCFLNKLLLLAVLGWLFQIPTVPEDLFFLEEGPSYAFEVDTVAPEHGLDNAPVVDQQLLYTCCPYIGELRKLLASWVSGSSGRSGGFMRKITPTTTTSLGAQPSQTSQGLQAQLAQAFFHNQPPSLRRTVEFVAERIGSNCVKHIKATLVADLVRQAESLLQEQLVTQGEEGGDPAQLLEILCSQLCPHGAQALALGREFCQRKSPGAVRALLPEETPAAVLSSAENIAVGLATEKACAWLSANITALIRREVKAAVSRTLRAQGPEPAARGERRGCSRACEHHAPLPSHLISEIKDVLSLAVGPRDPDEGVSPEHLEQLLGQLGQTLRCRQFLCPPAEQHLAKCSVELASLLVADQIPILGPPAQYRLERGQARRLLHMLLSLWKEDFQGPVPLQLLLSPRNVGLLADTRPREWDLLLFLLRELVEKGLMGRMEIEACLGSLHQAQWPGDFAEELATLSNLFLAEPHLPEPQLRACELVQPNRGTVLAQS
Described as above.

Results are given in words; binding and its absence hold for the method and conditions named. In cells and extracts the contact can be indirect. Some binding calls cover weakened binding; strength is not graded here.

B1: FLAG-tagged CDIN1 (F-CDIN1) (natural protein, UniProt Q9Y2V0 1-281, looked up)
chain: MILTKAQYDEIAQCLVSVPPTRQSLRKLKQRFPSQSQATLLSIFSQEYQKHIKRTHAKHHTSEAIESYYQRYLNGVVKNGAAPVLLDLANEVDYAPSLMARLILERFLQEHEETPPSKSIINSMLRDPSQIPDGVLANQVYQCIVNDCCYGPLVDCIKHAIGHEHEVLLRDLLLEKNLSFLDEDQLRAKGYDKTPDFILQVPVAVEGHIIHWIESKASFGDECSHHAYLHDQFWSYWNRFGPGLVIYWYGFIQELDCNRERGILLKACFPTNIVTLCHSIA
notes: C15orf41); cDNA synthesized by IDT; source: Expi293, transiently transfected, in lysate and purified in complexes (anti-FLAG, Strep-Tactin); not shown: 3xFLAG, N-terminal, kept
Consider B1, for which the binding result in assay [1] and in assay [2] was “binds” throughout.
